Results reported in the antibiotic and cytotoxicity screens of Wong et al. (2023).
The other results are listed elsewhere or left out.

Tests used:
[1] = test system: HSkMC (human skeletal muscle cells); test: cytotoxicity call (relative viability < 0.9); conditions: 10 µM
[2] = test system: HepG2; test: cytotoxicity call (relative viability < 0.9); conditions: 10 µM
[3] = test system: S. aureus RN4220; test: growth inhibition call (relative growth <= 0.2); conditions: 50 µM

| SMILES | cytotoxicity call [1] | cytotoxicity call [2] | growth inhibition call [3] |
| --- | --- | --- | --- |
| O=c1cc(O)nc[nH]1 | inactive | inactive | inactive |
| C[C@H](CO)N1C[C@H](C)[C@@H](CN(C)CC2CC2)OCCCC[C@H](C)Oc2ccc(NC(=O)CCC(F)(F)F)cc2C1=O | inactive | inactive | inactive |
| CCS(=O)(=O)N1C[C@]2(CCN(CC2)S(=O)(=O)c2cn(cn2)C)c2c(n(c3cc(ccc23)OC)C)[C@H]1CO | inactive | inactive | inactive |
| COCC(=O)N1CC[C@@H](O)[C@@H]1Cc1cnn(C)c1 | inactive | inactive | inactive |
| C[C@@H]1CN([C@@H](C)CO)C(=O)c2cc(NS(=O)(=O)c3cccs3)ccc2O[C@@H](C)CCCCO[C@H]1CN(C)Cc1ccc(C(=O)O)cc1 | inactive | inactive | inactive |
| O=C(C[C@@H]1CC=CCC[C@H](Cc2ccc(F)cc2)C(=O)OC[C@H](Cc2c[nH]c3ccccc23)NC1=O)N[C@H](CO)Cc1ccccc1 | inactive | active | inactive |
| C[C@@H]1CN([C@H](C)CO)C(=O)CCCn2nncc2CO[C@@H]1CN(C)S(=O)(=O)c1cccc(C#N)c1 | inactive | inactive | inactive |
| C[C@@H]1CCCCO[C@H](CN(C)C(=O)Nc2ccc(C(F)(F)F)cc2)[C@@H](C)CN([C@@H](C)CO)C(=O)c2cc(NS(=O)(=O)c3cn(C)cn3)ccc2O1 | inactive | inactive | inactive |
| Cc1noc(C)c1NC(=O)N(C)C[C@H]1Oc2ccc(NC(=O)c3ccncc3)cc2CC(=O)N([C@H](C)CO)C[C@@H]1C | inactive | inactive | inactive |
| CC(C)NC(=O)Nc1ccc2c(c1)C(=O)N([C@H](C)CO)C[C@@H](C)[C@H](CN(C)S(=O)(=O)c1cccs1)O2 | inactive | inactive | inactive |
